Reference: PubChem BioAssay AID1030 (National Center for Advancing Translational Sciences (NCATS), 2008)
Out of some 220,000 compounds screened, about 16,000 (7.3%) were called active. Inconclusive means that the source gave no clear call. Such entries were picked first, then a sample of the others. Calls follow the shape of the dose curve; as a rule, active = well fitted inhibition curve with a large enough effect (not every such curve was filed as active); inconclusive = small, poorly fitted or top-dose-only effect, or another doubt; inactive = no such curve, though single readings can be large or run the other way. Potencies beside an inconclusive call are fits to weak or partial responses and may not hold up.

Target: Aldehyde dehydrogenase 1A1 (Homo sapiens) (UniProt P00352)
Assay: qHTS Assay for Inhibitors of Aldehyde Dehydrogenase 1 (ALDH1A1)
Conditions: Purified ALDH1A1, NADH fluorescence, propionaldehyde substrate; series mostly up to 75.3 µM
Potency is read from the fitted curve at half-maximal effect; tags tell the direction and shape of the fitted curve.

Chain of UniProt P00352 (P00352 whole entry, looked up): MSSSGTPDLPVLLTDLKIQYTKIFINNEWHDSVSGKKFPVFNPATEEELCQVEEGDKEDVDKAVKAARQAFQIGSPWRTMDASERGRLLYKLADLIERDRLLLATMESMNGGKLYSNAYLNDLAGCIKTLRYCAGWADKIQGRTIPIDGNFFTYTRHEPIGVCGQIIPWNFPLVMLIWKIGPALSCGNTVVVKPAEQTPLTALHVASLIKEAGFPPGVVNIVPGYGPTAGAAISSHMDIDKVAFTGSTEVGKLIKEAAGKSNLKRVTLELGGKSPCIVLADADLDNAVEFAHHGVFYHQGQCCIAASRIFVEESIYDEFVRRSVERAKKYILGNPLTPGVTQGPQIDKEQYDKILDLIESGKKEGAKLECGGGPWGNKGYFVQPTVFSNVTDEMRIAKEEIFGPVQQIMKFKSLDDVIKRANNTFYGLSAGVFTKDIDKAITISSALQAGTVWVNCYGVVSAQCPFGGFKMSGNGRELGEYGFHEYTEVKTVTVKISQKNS

Potency, active:
CCOC(=O)N1CCN(S(=O)(=O)c2ccc(OCC)c(C)c2)CC1 15.8 µM, CC1CCN(C2CC(=O)N(c3ccccc3)C2=O)CC1 (configuration not stated) 28.2 µM, Cc1cccn2c(CN(C)CC3CCCCO3)c(C(=O)N3CCCCC3)nc12 (configuration not stated) 0.199 µM, Cc1cccnc1-n1c(CCN2C(=O)c3ccccc3C2=O)nc2ccccc2c1=O 17.8 µM, CC1=NN(c2ccc(Cl)cc2)C(=O)C1 0.631 µM, COc1ccc(C(=O)/C=C/Nc2ccc([N+](=O)[O-])cc2)cc1 39.8 µM, CC(=O)NC1C(=O)Nc2c1cccc2C(F)(F)F (configuration not stated) 0.282 µM, O=C(N/N=C/c1cccs1)c1cccc(NC(=O)c2ccccc2Cl)c1 15.8 µM, CCOC(=O)C1=C(CC)Nc2ccccc2N=C1NC(=O)c1ccc(S(=O)(=O)N2CCCC2)cc1 14.1 µM, O=C(Nc1ccc(Cc2ccncc2)cc1)c1ccc(S(=O)(=O)N2CCCC2)cc1 14.1 µM, COc1cccc(OCC(=O)Nc2ccccc2-c2ccccc2)c1 20 µM, COC(=O)c1c(NC(=O)CC2SC(N)=NC2=O)sc2c1CCCC2 (configuration not stated) 25.1 µM, COc1ccc(C(=O)NNc2ccccc2)cc1OC 22.4 µM, CC1CCCCN1C(=O)CSc1nnc(-c2c[nH]c3ccccc23)o1 (configuration not stated) 25.1 µM

Potency, inactive:
COC(=O)[C@@]1(Cc2ccc(F)cc2)[C@H]2c3cc(C(=O)N4CCCC4)n(Cc4ccc(C)c(F)c4F)c3C[C@H]2CN1C(=O)c1ccccc1, O=C(N/N=C/c1cccs1)/C(=C/c1ccccc1)NC(=O)c1ccccc1, NO, O=C(Cc1ccc(F)cc1)Nc1c2c(nn1-c1cccc(Cl)c1)CS(=O)C2 (configuration not stated), COc1ccc(NC(=O)C(CCSC)N2C(=O)c3ccccc3C2=O)cc1 (configuration not stated), O=C(NCCN1CCOCC1)c1cc2cc([N+](=O)[O-])ccc2s1, O=C(NC(=S)NCCN1CCOCC1)c1cccc(Cl)c1, CCCNC(=S)Nc1ccc(S(N)(=O)=O)cc1, CN1CCN(/C=N/c2c(C#N)cnn2-c2ccccc2)CC1, Cc1sc(NC(=O)CSc2nnc(C(C)C)n2C)c(C#N)c1C, CCN(CC)CCNC(=O)c1ccc(NC(=O)c2ccc(F)cc2)cc1, OCCC1CN(CCCn2cccn2)CCN1C1CCCCC1 (configuration not stated), COc1cccc(OC)c1C(=O)NC(=S)Nc1ccc(S(=O)(=O)Nc2nccs2)cc1, Cc1ccccc1-c1nc(P(=O)(c2ccccc2)c2ccccc2)c(N2CCOCC2)o1, CCC(C)NC(=O)c1ccccc1NS(=O)(=O)c1ccc(OC)c(OC)c1 (configuration not stated), COc1ccc(-n2c(C(C)(C)C)csc2=Nc2c(C)n(C)n(-c3ccccc3)c2=O)cc1, C#CCOc1nc(OCC#C)nc(OCC#C)n1, Cc1ccnc(NC(=O)Cn2cc([N+](=O)[O-])cn2)c1, C/C(=N/N1CCN(c2ccccn2)CC1)c1cccc([N+](=O)[O-])c1, COC(=O)c1ccc(-c2noc(CN3CCCCC3c3nccn3C)n2)cc1 (configuration not stated), Cc1cccc2nc(COc3ccc(-c4ccccc4)cc3)cn12, CNc1nc(C)c(C(=O)OCc2ccccc2)s1, Cc1cc(C)nc(/N=C(\N)Nc2ccc3c(c2)OCCO3)n1, C[C@@H]1C[C@H]2[C@@H]3CCC4=CC(=O)C=C[C@]4(C)[C@@]3(F)[C@@H](O)C[C@]2(C)[C@@]1(O)C(=O)COP(=O)(O)O, Cc1csc(-c2cnn(-c3ccccc3)c2NC(=O)c2cccc(C(F)(F)F)c2)n1, FC(F)(F)c1cnc(-c2cnc(-c3ccccn3)nc2)c(Cl)c1, O=C(COC(=O)c1ccccc1C(=O)N1CCN(c2ccccc2)CC1)NCc1ccccc1

Potency, inconclusive:
CSc1ccccc1NC(=O)CN(C)Cc1cccc(Cl)c1 22.4 µM [inhibitor, partial curve, poor fit], O=C(CNC(=O)OCc1ccccc1)NC1CCCCCCC1 39.8 µM [inhibitor, single point], c1cncc(-c2nc(NCCCN3CCOCC3)c3c4c(sc3n2)CCC4)c1 35.5 µM [inhibitor, partial curve], Cc1ccc(-c2cn(-c3ccccc3)c(SCC(N)=O)n2)cc1C 28.2 µM [inhibitor, partial curve], COC(=O)c1ccc(Oc2cc(C)nc(Cl)n2)cc1 31.6 µM [inhibitor, single point], COc1cccc(C2CCCN2Cc2nc(CCC(C)C)no2)c1 (configuration not stated) 39.8 µM [inhibitor, single point], C=CCn1c(-c2ccoc2)n[nH]c1=S 39.8 µM [inhibitor, single point], N#C/C(=C\c1ccc(N2CCOCC2)o1)C(=O)N1CCOCC1 39.8 µM [inhibitor, single point], Cc1nn(C)cc1CNC(=O)c1cnn2c(C(F)F)cc(C3CC3)nc12 31.6 µM [inhibitor, single point], Cc1ccc(NC(=O)C2CCCN(S(=O)(=O)c3c(C)noc3/C=C/N(C)C)C2)cc1F (configuration not stated) 20 µM [inhibitor, single point], Cc1nc(NCCO)c2nc(-c3ccccc3)n(CCCN(C)C)c2n1 28.2 µM [inhibitor, partial curve], COc1ccc(S(=O)(=O)N(CC(=O)Nc2ccc3c(c2)OCO3)c2ccccc2OC)cc1 39.8 µM [inhibitor, single point], COc1ccc(/C=N/n2c(N)c(S(=O)(=O)c3cccs3)c3nc4ccccc4nc32)cc1OC 23.8 µM [inhibitor, partial curve], COC(=O)C1CCN(C(=O)C(C)Oc2ccc(Cl)cc2Cl)CC1 (configuration not stated) 39.8 µM [inhibitor, single point], Cn1c(SCc2ccccc2)nc2ccsc2c1=O 31.6 µM [inhibitor, single point], COC(=O)c1[nH]c2ccc(Cl)cc2c1NC(=O)CCN1CCOCC1 39.8 µM [inhibitor, single point], O=C(CN1CCN(Cc2ccccc2)CC1)N/N=C/c1cccs1 35.5 µM [inhibitor, single point], CN(C)C(=O)c1ccc(-c2nc(N3CCOCC3)c3ccccc3n2)cc1 28.2 µM [inhibitor, single point], CCSc1nnnn1-c1ccccc1 25.1 µM [inhibitor, single point], CN(C)S(=O)(=O)c1ccc(C(=O)NCC(=O)N/N=C/c2ccco2)cc1 39.8 µM [inhibitor, single point], CCCC(C)C(=O)Nc1nc(C)c(-c2csc(Nc3cc(OC)ccc3OC)n2)s1 (configuration not stated) 39.8 µM [inhibitor, single point], c1cc2c(cc1C1CCCCC1)c1c3n2CCN[C@H]3CCC1 39.8 µM [inhibitor, single point], O=C(COC(=O)c1ccccc1Nc1cccc(C(F)(F)F)c1)NCc1ccco1 35.5 µM [inhibitor, single point], CCOC(=O)Cn1cnc2c(cnn2-c2ccc(Cl)cc2)c1=O 20 µM [inhibitor, partial curve], Cc1ccc(/C=C/C(=O)c2ccc(N3CCOCC3)cc2)s1 39.8 µM [inhibitor, single point], COC(=O)c1[nH]c2ccc(F)cc2c1NC(=O)CCN1CCN(Cc2ccc3c(c2)OCO3)CC1 35.5 µM [inhibitor, single point], COc1ccc(C2N(c3cc(Cl)ccc3OC)C(=O)C3CCCN32)c(OC)c1 (configuration not stated) 44.7 µM [inhibitor, single point], Cc1ccc(C(=O)NCCSCc2ccccc2)cc1[N+](=O)[O-] 39.8 µM [inhibitor, single point], CCC(C(=O)NC1CCCC1)N(C(=O)Cn1nnc(-c2ccc(C)o2)n1)C(C)(C)C (configuration not stated) 39.8 µM [inhibitor, single point], COc1ccc(/C=N/NC(=O)c2nc(-c3ccccc3)n(-c3ccccc3)n2)c(O)c1 39.8 µM [inhibitor, single point], CCCCOC(=O)C(C#N)c1nc2ccccc2nc1N1CCOCC1 (configuration not stated) 12.6 µM [inhibitor, partial curve], Cc1cc(N/C(=N/S(=O)(=O)c2cc(F)ccc2F)c2ccccc2)n(-c2ccccc2)n1 17.8 µM [inhibitor, partial curve], CC(=O)Nc1cccc(-c2nc3ccc(NC(C)=O)cc3s2)c1 31.6 µM [inhibitor, partial curve], N#CCc1ccc(NS(=O)(=O)c2ccc(C3CCCCC3)cc2)cc1 39.8 µM [inhibitor, single point], Cc1ccccc1NC(=O)Cn1c(=O)n(CC2CCCO2)c(=O)c2ccccc21 (configuration not stated) 20 µM [inhibitor, partial curve], CC(C)c1ccc(-n2c(-c3ccccc3)c[n+]3c2CCc2ccccc2-3)cc1 31.6 µM [inhibitor, partial curve]
